Source: PubChem BioAssay AID1030 (National Center for Advancing Translational Sciences (NCATS), 2008)
In all, about 220,000 compounds went through this assay and about 16,000 (7.3%) were called active. This list was built around the results that the source calls inconclusive (neither active nor inactive); the mix of calls is not that of the screen. Calls follow the shape of the dose curve; as a rule, active = well fitted inhibition curve with a large enough effect (not every such curve was filed as active); inconclusive = small, poorly fitted or top-dose-only effect, or another doubt; inactive = no such curve, though single readings can be large or run the other way. Potencies of inconclusive entries are left out as doubtful fits.

Target: Aldehyde dehydrogenase 1A1 (Homo sapiens) (UniProt P00352)
Chain of UniProt P00352 (P00352 whole entry, looked up): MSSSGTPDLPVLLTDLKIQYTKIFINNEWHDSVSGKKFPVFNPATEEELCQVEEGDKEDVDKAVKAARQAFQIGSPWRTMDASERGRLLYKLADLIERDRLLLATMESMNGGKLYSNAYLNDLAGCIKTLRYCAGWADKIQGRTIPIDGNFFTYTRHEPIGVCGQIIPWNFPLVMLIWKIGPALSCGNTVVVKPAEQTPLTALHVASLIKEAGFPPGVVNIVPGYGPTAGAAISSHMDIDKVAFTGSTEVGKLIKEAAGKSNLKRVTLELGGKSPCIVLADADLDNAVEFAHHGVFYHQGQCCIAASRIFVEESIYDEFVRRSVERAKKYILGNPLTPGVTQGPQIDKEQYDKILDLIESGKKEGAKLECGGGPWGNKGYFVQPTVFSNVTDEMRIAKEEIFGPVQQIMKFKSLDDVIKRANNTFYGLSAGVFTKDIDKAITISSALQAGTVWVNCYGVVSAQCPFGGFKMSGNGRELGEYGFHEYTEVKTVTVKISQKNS
Assay: qHTS Assay for Inhibitors of Aldehyde Dehydrogenase 1 (ALDH1A1)
Details: Purified ALDH1A1, NADH fluorescence, propionaldehyde substrate; series mostly up to 75.3 µM
Potency is read from the fitted curve at half-maximal effect; tags tell the direction and shape of the fitted curve.

Row | Structure (SMILES) | Potency
1 | COc1ccc(-c2cc(C(F)(F)F)n3nc(C(=O)N4CCCCC4)cc3n2)cc1 | inconclusive [inhibitor, partial curve]
2 | CCn1ncc([N+](=O)[O-])c1C(=O)NC1CCCCC1 | inactive
3 | CC(=O)Nc1ccc(SCC(=O)Nc2cc(C(C)(C)C)nn2-c2ccccc2)cc1 | inactive
4 | CCOC(=O)C1=C(Cc2ccc(F)cc2)C(=O)c2ccccc2C1=O | inconclusive [inhibitor, partial curve]
5 | O=C(NCC1CCCO1)C(c1ccc(F)cc1)N(Cc1ccc(F)cc1)C(=O)Cn1nnc(-c2cccs2)n1 (centres undefined) | inconclusive [inhibitor, full curve, poor fit]
6 | CCOC(=O)c1c(NC(=O)CC2SC(N)=NC2=O)sc(C)c1C (centres undefined) | inactive
7 | Cc1ccc(-n2[nH]c(C)c(/C=N/Nc3ccc([N+](=O)[O-])cc3[N+](=O)[O-])c2=O)cc1 | inconclusive [inhibitor, partial curve]
8 | COc1ccc(C(=O)N(Cc2ccc(N(C)C)cc2)C2CCS(=O)(=O)C2)cc1 (centres undefined) | active: 5.62 µM
9 | Cc1cccc(NC(=O)c2ccccc2NC(=O)C2CCCCC2)c1C | inconclusive [inhibitor, single point]
10 | COc1ccc(CC2NCCC3(O)CCCCC23)cc1 (centres undefined) | active: 15.8 µM
11 | N#CC1=C2SCN(Cc3ccccc3)CN2C(=O)CC1c1ccccc1F (centres undefined) | active: 10 µM
12 | COc1ccc(-c2nnc(SCC(=O)N3CCC(Cc4ccccc4)CC3)o2)cc1OC | inconclusive [inhibitor, single point]
13 | O=C(CCCC(=O)N1CCCc2ccccc21)N1CCCc2ccccc21 | inactive
14 | CCOC(=O)NC(=O)C(=CNc1ccc(C)cc1)C(=O)NC(=O)OCC | inactive
15 | Cc1cc(C(=O)NCCc2ccccc2)c2cc(F)ccc2n1 | inconclusive [inhibitor, partial curve]
16 | CN1C(=O)/C(=C2/C=CC=CN2C)OC1=S | inconclusive [inhibitor, single point]
17 | N#Cc1ccccc1-c1ccc2ncnc(NCc3cccs3)c2c1 | inconclusive [inhibitor, full curve]
18 | CSc1nc(N)nc(SCC(=O)Nc2ccc(Cl)cc2)c1C#N | inconclusive [inhibitor, partial curve]
19 | CC1=C(C#N)C(c2ccc(O)cc2)C2=C(CCCC2=O)N1 (centres undefined) | inconclusive [inhibitor, single point]
20 | Cc1ccc(C(=O)/C=C/c2ccc3c(c2)OCO3)o1 | inconclusive [inhibitor, single point]
21 | O=c1c2ccccc2c(/C=N/c2nnc(Cc3ccccc3)s2)c(O)n1-c1ccc(Cl)cn1 | inconclusive [inhibitor, single point]
22 | Cc1ccc2[nH]c(=O)c(CN(CCc3ccccc3)Cc3nnnn3CC3CCCO3)cc2c1 (centres undefined) | active: 22.4 µM
23 | Nc1[nH]n(-c2ccccc2)c(=O)c1N=Nc1ccc2c(c1)OCCO2 | inconclusive [inhibitor, partial curve]
24 | Cc1ccc(-c2ccc(/C=N/NC(=O)CN3CCCC3)o2)cc1Cl | inconclusive [inhibitor, single point]
25 | O=Cc1cn(CC(=O)N2CCc3ccccc32)c2ccccc12 | active: 17.8 µM

Row | Structure (SMILES) | Potency
26 | CN(C)c1ccc(C(CC(=O)c2ccccc2)C2CCCCC2=O)cc1 (centres undefined) | inconclusive [inhibitor, single point]
27 | O=C(O)C1CCCN1C(=O)Nc1ccccc1 (centres undefined) | inactive
28 | CC(NC(=O)CSc1nnc(CC(=O)Nc2ccc(Cl)c(Cl)c2)n1C)c1ccccc1 (centres undefined) | inconclusive [inhibitor, partial curve, poor fit]
29 | CCCn1c(SCC(=O)NC2CCCc3ccccc32)n[nH]c1=O (centres undefined) | inconclusive [inhibitor, partial curve, poor fit]
30 | O=C1COc2ccc(-c3csc(NCCc4ccccc4)n3)cc2N1 | inconclusive [inhibitor, single point]
31 | COc1c(Cl)ccc(Cl)c1C(=O)NC(=S)N1CCOCC1 | inactive
32 | CCCc1nnc(NC(=O)Nc2ccc(OC)cc2)s1 | inconclusive [inhibitor, partial curve]
33 | O=Nc1ccc(NOC(=O)c2ccccc2Br)cc1 | active: 12.6 µM
34 | COc1ccc(C(=O)Nc2nc3c(s2)Cc2cc(OC)ccc2-3)cc1 | active: 22.4 µM
35 | O=C(NCc1cccs1)c1ccccc1 | inactive
36 | CNC(=O)CSc1cn(CC(=O)N(C(C)C)C(C)C)c2ccccc12 | inactive
37 | O=C(O)CCCCCCNC(=O)c1cncc(O)c1 | inconclusive [inhibitor, single point]
38 | O=C(CNS(=O)(=O)c1cccc(Cl)c1)Nc1ccc(-c2nc3ccccc3s2)cc1 | inconclusive [inhibitor, single point]
39 | Clc1ccc(-c2nnc(-c3ccco3)nc2N2CCCCC2)cc1 | active: 2.24 µM
40 | Oc1[nH]c2ccccc2c1N=Nc1nc2ccccc2s1 | inactive
41 | Cc1ccc(CN2CCN(CC(=O)O)C2=O)cc1 | inactive
42 | OC(CNCC1COc2ccccc2O1)COCc1cccs1 (centres undefined) | inactive
43 | Cc1cc(=O)n2nc(-c3ccccc3)sc2n1 | inconclusive [inhibitor, partial curve]
44 | Cc1ccc(C(=O)OC2CCN(c3ccc([N+](=O)[O-])cc3)CC2)cc1 | inconclusive [inhibitor, single point]
45 | O=C(Nc1nc(-c2ccccn2)cs1)c1ccc2c(c1)OCCO2 | inactive
46 | COc1ccc(C2CC(=O)c3cnc(N4CCc5ccccc54)nc3C2)cc1OC (centres undefined) | inconclusive [inhibitor, partial curve]
47 | O=C(c1cnn(C(=O)c2ccccc2)c1)c1ccccc1O | active: 2.24 µM
48 | Cc1ccc2nc(NC(=O)CN3CCOCC3)sc2c1 | inactive
49 | CCOC(=O)c1c(-c2ccccc2)oc2ccc(OCC)cc12 | inconclusive [inhibitor, partial curve]
